The values below come from the supplement of paper PMC11741623.

The chains are these.
B1: SCMH1, Q96GD3 (protein)
chain: MLVCYSVLACEILWDLPCSIMGSPLGHFTWDKYLKETCSVPAPVHCFKQSYTPPSNEFKISMKLEAQDPRNTTSTCIATVVGLTGARLRLRLDGSDNKNDFWRLVDSAEIQPIGNCEKNGGMLQPPLGFRLNASSWPMFLLKTLNGAEMAPIRIFHKEPPSPSHNFFKMGMKLEAVDRKNPHFICPATIGEVRGSEVLVTFDGWRGAFDYWCRFDSRDIFPVGWCSLTGDNLQPPGTKVVIPKNPYPASDVNTEKPSIHSSTKTVLEHQPGQRGRKPGKKRGRTPKTLISHPISAPSKTAEPLKFPKKRGPKPGSKRKPRTLLNPPPASPTTSTPEPDTSTVPQDAATIPSSAMQAPTVCIYLNKNGSTGPHLDKKKVQQLPDHFGPARASVVLQQAVQACIDCAYHQKTVFSFLKQGHGGEVISAVFDREQHTLNLPAVNSITYVLRFLEKLCHNLRSDNLFGNQPFTQTHLSLTAIEYSHSHDRYLPGETFVLGNSLARSLEPHSDSMDSASNPTNLVSTSQRHRPLLSSCGLPPSTASAVRRLCSRGVLKGSNERRDMESFWKLNRSPGSDRYLESRDASRLSGRDPSSWTVEDVMQFVREADPQLGPHADLFRKHEIDGKALLLLRSDMMMKYMGLKLGPALKLSYHIDRLKQGKF
B2: PPY, P01298 (protein)
chain: MAAARLCLSLLLLSTCVALLLQPLLGAQGAPLEPVYPGDNATPEQMAQYAADLRRYINMLTRPRYGKRHKEDTLAFSEWGSPHAAVPRELSPLDL
B3: TMEM252, Q8N6L7 (protein)
chain: MQNRTGLILCALALLMGFLMVCLGAFFISWGSIFDCQGSLIAAYLLLPLGFVILLSGIFWSNYRQVTESKGVLRHMLRQHLAHGALPVATVDRPDFYPPAYEESLEVEKQSCPAEREASGIPPPLYTETGLEFQDGNDSHPEAPPSYRESIAGLVVTAISEDAQRRGQEC
B4: TOMM34, Q15785 (protein)
chain: MAPKFPDSVEELRAAGNESFRNGQYAEASALYGRALRVLQAQGSSDPEEESVLYSNRAACHLKDGNCRDCIKDCTSALALVPFSIKPLLRRASAYEALEKYPMAYVDYKTVLQIDDNVTSAVEGINRMTRALMDSLGPEWRLKLPSIPLVPVSAQKRWNSLPSENHKEMAKSKSKETTATKNRVPSAGDVEKARVLKEEGNELVKKGNHKKAIEKYSESLLCSNLESATYSNRALCYLVLKQYTEAVKDCTEALKLDGKNVKAFYRRAQAHKALKDYKSSFADISNLLQIEPRNGPAQKLRQEVKQNLH
B5: SURF1, Q15526 (protein)
chain: MAAVAALQLGLRAAGLGRAPASAAWRSVLRVSPRPGVAWRPSRCGSSAAEASATKAEDDSFLQWVLLLIPVTAFGLGTWQVQRRKWKLNLIAELESRVLAEPVPLPADPMELKNLEYRPVKVRGCFDHSKELYMMPRTMVDPVREAREGGLISSSTQSGAYVVTPFHCTDLGVTILVNRGFVPRKKVNPETRQKGQIEGEVDLIGMVRLTETRQPFVPENNPERNHWHYRDLEAMARITGAEPIFIDANFQSTVPGGPIGGQTRVTLRNEHLQYIVTWYGLSAATSYLWFKKFLRGTPGV

Some of the results follow. Interaction screen of human proteins with wild-type SARS-CoV-2 proteins by split-DHFR complementation in yeast, 1 µg/mL methotrexate. Value = fitness of the pair (three or more lineages) minus that of the viral protein without a human partner, on a scale set by negative (0) and fused positive (1) controls, mean of up to three cultures; higher = more likely to interact. Active = false discovery rate below 0.05 (one-sided t-test) in at least one culture. Nearly all pairs are not hits, and differences among them are mostly noise (correlation between cultures about 0.3); most hits were seen in one culture only. Human sequences are the Swiss-Prot entries looked up by gene name; the clone may be another isoform. NSP2 values were corrected by the authors for a growth advantage. Listed are human proteins with a hit and a random twelfth of the others.

The first assay has as its target SARS-CoV-2 E. Briefly: yeast fitness gain over the viral ORF with no human partner (scaled fitness); higher = more likely to interact. How it is done:
(§1)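 Split mouse DHFR complementation in pooled diploid yeast: human ORFeome clones carry one fragment and viral ORFs the other; barcoded lineages compete in 1 µg/mL methotrexate and fitness is read by barcode sequencing in up to three cultures.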
As for B1, the yeast fitness gain was inactive: 0.137.
On the same count and under the same terms, for B2 the value was inactive: 0.0297.
Still for that read-out and setting: for B3 the value was inactive: -0.00477; for B4, inactive: 0.0807.
Same read-out and setting: for B5 the value was inactive: -0.0532.

A further assay deals with SARS-CoV-2 M. The assay is described as above. The protocol: as §1
As to B1, the yeast fitness gain is inactive: 0.0189.
Still for that read-out and setting: for B2 the value was inactive: 0.00459; for B3, inactive: 0.0741.
The same measure, in the same setting: in the case of B4 it was inactive: -0.000551.

The target in the next assay is SARS-CoV-2 N. The description is as above. The protocol:
as §1
As to B1, the yeast fitness gain was inactive: -0.0539.
The same measure, in the same setting: for B2 the value was inactive: -0.0929; for B4, inactive: 0.184; for B5, inactive: -0.0112.

The next assay addresses SARS-CoV-2 NSP1. The assay is described as above. The protocol:
as §1
For the molecule B1, the yeast fitness gain was inactive: -0.0665.
B2: the yeast fitness gain is inactive: 0.0445.
The same measure, in the same setting: in the case of B3 it was inactive: 0.0312; in that of B4, inactive: 0.031; in that of B5, inactive: -0.00343.

The target of a further assay is SARS-CoV-2 NSP10. The description is as above. The protocol:
as §1
For B1, the yeast fitness gain was inactive: -0.00813.
Take B2: the yeast fitness gain was inactive: -0.00811.
Still for that read-out and setting: in the case of B3 it was inactive: 0.0496.
Take B4: the yeast fitness gain was inactive: 0.0251.

In another assay the target is SARS-CoV-2 NSP12. The assay is described as above. How it is done:
as §1
Consider B1, for which the yeast fitness gain is inactive: 0.0518.
With B2, the yeast fitness gain is inactive: 0.0234.
The same measure, in the same setting: for B3 the value was inactive: 0.0417.
Still for that read-out and setting: for B4 the value was inactive: 0.0334.

Another assay concerns the target SARS-CoV-2 NSP13. The assay is described as above. How it is done: as §1
As to B1, the yeast fitness gain was inactive: 0.0125.
Still for that read-out and setting: in the case of B2 it was inactive: -0.0446; in that of B3, inactive: -0.0112; in that of B4, inactive: -0.0418.

In a further assay the target is SARS-CoV-2 NSP15. The assay is described as above. The protocol:
as §1
B1: the yeast fitness gain was inactive: 0.0705.
Still for that read-out and setting: for B2 the value was inactive: -0.0347.
Same read-out and setting: for B3 the value was inactive: -0.0491.
On the same count and under the same terms, in the case of B4 it was inactive: 0.0764.

The next assay has as its target SARS-CoV-2 NSP16. Described as above. The protocol:
as §1
On to B1, for which the yeast fitness gain is inactive: 0.0259.
The same measure, in the same setting: for B2 the value was inactive: -0.0712.
On the same count and under the same terms, for B3 the value was inactive: 0.00957; for B4, inactive: 0.023.
The same measure, in the same setting: for B5 the value was inactive: 0.0122.

The next assay deals with SARS-CoV-2 NSP2. Described as above. How it is done: as §1
With B1, the yeast fitness gain was inactive: -0.161.
Still for that read-out and setting: in the case of B2 it was inactive: -0.125; in that of B3, inactive: -0.0504; in that of B4, active: 0.216.

Another assay has as its target SARS-CoV-2 NSP5. Described as above. The protocol: as §1
As to B1, the yeast fitness gain was inactive: 0.00652.
Same read-out and setting: in the case of B2 it was inactive: 0.0311; in that of B3, inactive: 0.00499.
Same read-out and setting: in the case of B4 it was inactive: 0.00349.

In another assay the target is SARS-CoV-2 NSP6. Described as above. The protocol:
as §1
With B1, the yeast fitness gain was inactive: 0.0269.
Still for that read-out and setting: for B2 the value was inactive: -0.00138; for B3, inactive: 0.065; for B4, inactive: 0.0269.

The target in another assay is SARS-CoV-2 NSP7. Described as above. The protocol:
as §1
For the molecule B1, the yeast fitness gain is inactive: -0.0759.
On the same count and under the same terms, in the case of B2 it was inactive: -0.0141; in that of B3, inactive: 0.00323.
The same measure, in the same setting: in the case of B4 it was inactive: -0.0165.

In the next assay the target is SARS-CoV-2 NSP8. Described as above. How it is done:
as §1
As to B1, the yeast fitness gain was inactive: -0.0793.
Regarding B2, the yeast fitness gain was inactive: -0.154.
Still for that read-out and setting: for B3 the value was inactive: 0.0434; for B4, inactive: 0.0828.
On the same count and under the same terms, for B5 the value was inactive: 0.0415.

In the next assay the target is SARS-CoV-2 NSP9. The assay is described as above. How it is done: as §1
B1: the yeast fitness gain was inactive: 0.00541.
On the same count and under the same terms, for B2 the value was inactive: -0.0178; for B3, inactive: 0.0586; for B4, inactive: -0.109.
For the molecule B5, the yeast fitness gain is inactive: 0.0728.

Another assay deals with SARS-CoV-2 ORF10. The assay is described as above. How it is done: as §1
Turning to B1, the yeast fitness gain was inactive: -0.0456.
Still for that read-out and setting: in the case of B2 it was inactive: -0.0877; in that of B3, inactive: 0.0285.
Still for that read-out and setting: in the case of B4 it was inactive: 0.0165.

For another assay, the target named is SARS-CoV-2 ORF3A. The assay is described as above. The protocol:
as §1
For B1, the yeast fitness gain is inactive: -0.0297.
On the same count and under the same terms, in the case of B3 it was inactive: 0.111; in that of B4, inactive: 0.101.
Still for that read-out and setting: in the case of B5 it was inactive: 0.00529.

Another assay concerns the target SARS-CoV-2 ORF3B. The assay is described as above. The protocol: as §1
With B1, the yeast fitness gain was inactive: 0.0137.
Turning to B2, the yeast fitness gain was inactive: -0.00817.
Same read-out and setting: for B3 the value was inactive: 0.0314; for B4, inactive: 0.0319.

The target of a further assay is SARS-CoV-2 ORF6. The assay is described as above. How it is done: as §1
As for B1, the yeast fitness gain is inactive: -0.0132.
As for B2, the yeast fitness gain is inactive: 0.0194.
Same read-out and setting: in the case of B3 it was inactive: -0.062; in that of B4, inactive: 0.0299.

For a further assay, the target named is SARS-CoV-2 ORF7A. The assay is described as above. How it is done:
as §1
For B1, the yeast fitness gain is inactive: 0.00601.
Same read-out and setting: in the case of B2 it was inactive: -0.066.
On the same count and under the same terms, for B3 the value was inactive: -0.054.
Take B4: the yeast fitness gain is inactive: 0.0174.

The next assay concerns the target SARS-CoV-2 ORF7B. The assay is described as above. The protocol:
as §1
Regarding B1, the yeast fitness gain was inactive: 0.00801.
The same measure, in the same setting: for B2 the value was inactive: -0.0668; for B3, inactive: 0.0423.
In the case of B4, the yeast fitness gain is inactive: -0.00317.

A further assay concerns the target SARS-CoV-2 ORF8. The assay is described as above. How it is done:
as §1
Consider B1, for which the yeast fitness gain is inactive: 0.028.
The same measure, in the same setting: in the case of B2 it was inactive: 0.0219.
On to B3, for which the yeast fitness gain was inactive: 0.0591.
Same read-out and setting: in the case of B4 it was inactive: 0.0287.

The next assay addresses SARS-CoV-2 ORF9B. Described as above. The protocol: as §1
Regarding B1, the yeast fitness gain was inactive: 0.0272.
Same read-out and setting: in the case of B2 it was inactive: -0.0191; in that of B3, inactive: 0.0382.
On the same count and under the same terms, for B4 the value was inactive: 0.0346.

The next assay has as its target SARS-CoV-2 ORF9Bwu (the 73-codon ORF). Described as above. How it is done:
as §1
With B1, the yeast fitness gain was inactive: -0.0154.
Still for that read-out and setting: for B2 the value was inactive: 0.0552; for B3, inactive: 0.0262.
Same read-out and setting: in the case of B4 it was inactive: -0.0658; in that of B5, inactive: 0.0161.

The target in another assay is SARS-CoV-2 S. The description is as above. The protocol:
as §1
B1: the yeast fitness gain was inactive: 0.0405.
Same read-out and setting: in the case of B2 it was inactive: 0.0655; in that of B3, inactive: 0.0241.
Same read-out and setting: in the case of B4 it was inactive: 0.0322.

A further assay deals with SARS-CoV-2 NSP14. The description is as above. The protocol:
as §1
B2: the yeast fitness gain was inactive: -0.171.
As to B3, the yeast fitness gain is inactive: 0.0284.
The same measure, in the same setting: in the case of B4 it was inactive: 0.0296.

The next assay deals with SARS-CoV-2 NSP4. Described as above. The protocol:
as §1
On to B2, for which the yeast fitness gain was inactive: -0.359.
Same read-out and setting: in the case of B3 it was inactive: 0.0144.
Same read-out and setting: in the case of B4 it was inactive: -0.00023.
